# Test results: the supplement of paper PMC8728848
# The other results are listed elsewhere or left out.
# B1: BC2LB (Burholderia cenocepacia), B4EH85_BURCJ (protein)
# chain: MGSSHHHHHHSSGENLYFQGHMSQPFTHDDLYALLQLAGNDATAVQANGDQAVLDRMRQFMTAQLVEKLPQYDVFVDIATIPYSFDVGSWQNKVKTDAAGEVVACTVTWAGAPGVLPGAAAKFGVGAVVNYFSKATPH
# Tests used:
# Test in all cases: glycan array binding signal (z-score within array); higher = stronger binding
# Conditions in all cases: glycan notation: IUPAC condensed, linker removed
# [1] = biological target: Neu5Ac(a2-3)Gal(b1-3)GlcNAc(b1-6)GalNAc
# Method in brief: (§1)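 Arrays were curated from the Consortium for Functional Glycomics database, 3228 in total, and kept only where the protein sequence was available. Binding is expressed as a within-array Z-score. This score was averaged across arrays of the same protein sequence at different concentrations or buffers and across linkers, and negative values can be read as non-binding.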
# [2] = biological target: Neu5Ac(a2-3)Gal(b1-3)GlcNAc6S
# Method in brief: as §1
# [3] = biological target: Neu5Ac(a2-3)Gal(b1-3)[Fuc(a1-4)]GlcNAc
# Method in brief: as §1
# [4] = biological target: Neu5Ac(a2-3)Gal(b1-3)[Fuc(a1-4)]GlcNAc(b1-3)Gal(b1-3)[Fuc(a1-4)]GlcNAc
# Method in brief: as §1
# [5] = biological target: Neu5Ac(a2-3)Gal(b1-3)[Fuc(a1-4)]GlcNAc(b1-3)Gal(b1-4)[Fuc(a1-3)]GlcNAc
# Method in brief: as §1
# [6] = biological target: Neu5Ac(a2-3)Gal(b1-3)[GlcNAc(b1-6)]GalNAc
# Method in brief: as §1
# [7] = biological target: Neu5Ac(a2-3)Gal(b1-3)[Neu5Ac(a2-6)]GalNAc
# Method in brief: as §1
# [8] = biological target: Neu5Ac(a2-3)Gal(b1-3)[Neu5Ac(a2-6)]GlcNAc(b1-3)[Fuc(a1-3)[Gal(b1-4)]GlcNAc(b1-6)]Gal(b1-4)Glc
# Method in brief: as §1
# [9] = biological target: Neu5Ac(a2-3)Gal(b1-3)]Neu5Ac(a2-3)Gal(b1-4)]GlcNAc
# Method in brief: as §1
# Neu5Ac(a2-3)Gal(b1-4)Glc = biological target: Neu5Ac(a2-3)Gal(b1-4)Glc
# Method in brief: as §1
# [10] = biological target: Neu5Ac(a2-3)Gal(b1-4)GlcNAc
# Method in brief: as §1
# [11] = biological target: Neu5Ac(a2-3)Gal(b1-4)GlcNAc(b1-2)Man
# Method in brief: as §1
# [12] = biological target: Neu5Ac(a2-3)Gal(b1-4)GlcNAc(b1-2)Man(a1-3)[GlcNAc(b1-4)][Neu5Ac(a2-3)Gal(b1-4)GlcNAc(b1-2)Man(a1-6)]Man(b1-4)GlcNAc(b1-4)GlcNAc
# Method in brief: as §1
# [13] = biological target: Neu5Ac(a2-3)Gal(b1-4)GlcNAc(b1-2)Man(a1-3)[Neu5Ac(a2-3)Gal(b1-4)GlcNAc(b1-2)Man(a1-6)]Man(b1-4)GlcNAc(b1-4)GlcNAc
# Method in brief: as §1
# [14] = biological target: Neu5Ac(a2-3)Gal(b1-4)GlcNAc(b1-2)Man(a1-3)[Neu5Ac(a2-3)Gal(b1-4)GlcNAc(b1-2)Man(a1-6)]Man(b1-4)GlcNAc(b1-4)[Fuc(a1-6)]GlcNAc
# Method in brief: as §1
# [15] = biological target: Neu5Ac(a2-3)Gal(b1-4)GlcNAc(b1-2)Man(a1-3)[Neu5Ac(a2-6)Gal(b1-4)GlcNAc(b1-2)Man(a1-6)]Man(b1-4)GlcNAc(b1-4)GlcNAc
# Method in brief: as §1
# [16] = biological target: Neu5Ac(a2-3)Gal(b1-4)GlcNAc(b1-2)[Neu5Ac(a2-3)Gal(b1-4)GlcNAc(b1-4)]Man(a1-3)[GlcNAc(b1-4)][Neu5Ac(a2-3)Gal(b1-4)GlcNAc(b1-2)[Neu5Ac(a2-3)Gal(b1-4)GlcNAc(b1-6)]Man(a1-6)]Man(b1-4)GlcNAc(b1-4)GlcNAc
# Method in brief: as §1
# [17] = biological target: Neu5Ac(a2-3)Gal(b1-4)GlcNAc(b1-2)[Neu5Ac(a2-3)Gal(b1-4)GlcNAc(b1-4)]Man(a1-3)[GlcNAc(b1-4)][Neu5Ac(a2-3)Gal(b1-4)GlcNAc(b1-4)Man(a1-6)]Man(b1-4)GlcNAc(b1-4)GlcNAc
# Method in brief: as §1
# [18] = biological target: Neu5Ac(a2-3)Gal(b1-4)GlcNAc(b1-2)[Neu5Ac(a2-3)Gal(b1-4)GlcNAc(b1-6)]Man(a1-6)[Neu5Ac(a2-3)Gal(b1-4)GlcNAc(b1-2)Man(a1-3)][GlcNAc(b1-4)]Man(b1-4)GlcNAc(b1-4)GlcNAc
# Method in brief: as §1
# [19] = biological target: Neu5Ac(a2-3)Gal(b1-4)GlcNAc(b1-3)Gal
# Method in brief: as §1
# [20] = biological target: Neu5Ac(a2-3)Gal(b1-4)GlcNAc(b1-3)Gal(b1-3)GlcNAc
# Method in brief: as §1
# [21] = biological target: Neu5Ac(a2-3)Gal(b1-4)GlcNAc(b1-3)Gal(b1-4)GlcNAc
# Method in brief: as §1
# [22] = biological target: Neu5Ac(a2-3)Gal(b1-4)GlcNAc(b1-3)Gal(b1-4)GlcNAc(b1-2)Man(a1-3)[Neu5Ac(a2-3)Gal(b1-4)GlcNAc(b1-3)Gal(b1-4)GlcNAc(b1-2)Man(a1-6)]Man(b1-4)GlcNAc(b1-4)GlcNAc
# Method in brief: as §1
# [23] = biological target: Neu5Ac(a2-3)Gal(b1-4)GlcNAc(b1-3)Gal(b1-4)GlcNAc(b1-3)Gal(b1-4)GlcNAc
# Method in brief: as §1
# [24] = biological target: Neu5Ac(a2-3)Gal(b1-4)GlcNAc(b1-3)Gal(b1-4)GlcNAc(b1-3)Gal(b1-4)GlcNAc(b1-2)Man(a1-3)[Neu5Ac(a2-3)Gal(b1-4)GlcNAc(b1-3)Gal(b1-4)GlcNAc(b1-3)Gal(b1-4)GlcNAc(b1-2)Man(a1-6)]GalNAc
# Method in brief: as §1
# [25] = biological target: Neu5Ac(a2-3)Gal(b1-4)GlcNAc(b1-3)Gal(b1-4)GlcNAc(b1-3)GalNAc
# Method in brief: as §1
# [26] = biological target: Neu5Ac(a2-3)Gal(b1-4)GlcNAc(b1-3)Gal(b1-4)GlcNAc(b1-3)[Neu5Ac(a2-3)Gal(b1-4)GlcNAc(b1-3)Gal(b1-4)GlcNAc(b1-6)]GalNAc
# Method in brief: as §1
# [27] = biological target: Neu5Ac(a2-3)Gal(b1-4)GlcNAc(b1-3)Gal(b1-4)GlcNAc(b1-6)[Gal(b1-3)]GalNAc
# Method in brief: as §1
# [28] = biological target: Neu5Ac(a2-3)Gal(b1-4)GlcNAc(b1-3)Gal(b1-4)[Fuc(a1-3)]GlcNAc
# Method in brief: as §1
# [29] = biological target: Neu5Ac(a2-3)Gal(b1-4)GlcNAc(b1-3)GalNAc
# Method in brief: as §1
binder,measurement,setting,value
B1,glycan array binding signal (z-score),[1],-0.177
same,glycan array binding signal (z-score),[2],-0.087
same,glycan array binding signal (z-score),[3],-0.228
same,glycan array binding signal (z-score),[4],0.18
same,glycan array binding signal (z-score),[5],-0.052
same,glycan array binding signal (z-score),[6],-0.242
same,glycan array binding signal (z-score),[7],2.87
same,glycan array binding signal (z-score),[8],-0.048
same,glycan array binding signal (z-score),[9],-0.178
same,glycan array binding signal (z-score),Neu5Ac(a2-3)Gal(b1-4)Glc,5.24
same,glycan array binding signal (z-score),[10],-0.236
same,glycan array binding signal (z-score),[11],2.39
same,glycan array binding signal (z-score),[12],-0.086
same,glycan array binding signal (z-score),[13],-0.261
same,glycan array binding signal (z-score),[14],-0.111
same,glycan array binding signal (z-score),[15],-0.365
same,glycan array binding signal (z-score),[16],-0.266
same,glycan array binding signal (z-score),[17],-0.238
same,glycan array binding signal (z-score),[18],-0.331
same,glycan array binding signal (z-score),[19],-0.277
same,glycan array binding signal (z-score),[20],-0.297
same,glycan array binding signal (z-score),[21],-0.176
same,glycan array binding signal (z-score),[22],0.109
same,glycan array binding signal (z-score),[23],-0.178
same,glycan array binding signal (z-score),[24],-0.057
same,glycan array binding signal (z-score),[25],-0.304
same,glycan array binding signal (z-score),[26],-0.203
same,glycan array binding signal (z-score),[27],-0.345
same,glycan array binding signal (z-score),[28],-0.261
same,glycan array binding signal (z-score),[29],-0.104
